Assay results as given in the supplement of paper PMC11417369.
Some of the results follow.

Test system: PF3D7_0420300 AP2 domain 1 (GST-tagged)
Assay: gcPBM binding intensity (ln(normalized median fluorescence intensity)); higher = stronger DNA binding
Procedure, shortened: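 Plasmodium falciparum DNA-binding domains carrying a GST tag were expressed in E. coli and applied for 1 h, at about 25 μg on average, to an Agilent 4 × 180k array. The array held primer-extended double-stranded 36-bp intergenic genomic probes together with negative controls, and binding took place in 1× PBS with 1% milk, 0.2 mg/ml BSA, 0.5% salmon testes DNA and 0.03% Triton X-100. An Alexa488 anti-GST antibody detected bound protein, and the array was scanned at 488 nm. Binding intensity is taken as the highest Masliner-normalised natural-log median intensity across replicate spots of either probe orientation.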

Row | Sequence | gcPBM binding intensity (ln)
1 | CATAAAAATATTAATAAACACACAATCAGATATTGA [CACACA_site9032] | 9.66
2 | AAATATATATAAACAAGTACATATTTAAAAAAAGGA [XGTACX_site2631] | 9.44
3 | ATAACACAAAATTGTTGTACACGTGTTAATAAGTGA [XGTACX_site4452] | 9.53
4 | ATATATATGAAACACACACACAAAAAAAAAAAAAAA [CACACA_site3647] | 9.69
5 | TAAAGTTATGCAATAACACACATATACAATACATAT [CACACA_site6698] | 9.64
6 | AATATTTATATAAATGCATGCTGATACAACAGTCTT [TGCATGCA_site21] | 9.25
7 | ATATTACGCACAAAAAAAAAAAAAAAAAAAAAAAAA [CACACA_negctrl_site941] | 8.77
8 | ATGATGTGCTTTAAAAGTACTTAAGTTATATTCTTT [XGTACX_site7127] | 9.27
9 | AAAATTAAAATTTTCACACAGATATATTTACAATTT [CACACA_site5692] | 9.1
10 | TAAATTAAAAAAAATACACACACACCGACACATATA [CACACA_site9084] | 10
11 | TTCGTAACTGATTCAACACACAAAAGGGGGAAAATT [CACACA_site1754] | 9.57
12 | AAAAAGAAGAATAATACACACAAATTACTTTATATA [CACACA_site6984] | 9.54
13 | ATATTATAGAAATATACACACATTGTTTTATAGCAT [CACACA_site7177] | 9.54
14 | AATTACAAATATTCATGTACATATTTATAAATACAT [XGTACX_site5430] | 9.19
15 | ATATATATATATATGTGTACATATATTAAGATATAT [XGTACX_site1065] | 9.29
16 | TATGTTATATAATATTGTACACAAAATGGTTTCTAT [XGTACX_site7686] | 9.2
17 | TATTAAATATTGTATACATGCAAATACTAGAAAATT [TGCATGCA_site370] | 9.32
18 | AATAATATAAATATTACACACTAATTGTATTATAGA [CACACA_site6347] | 9.29
19 | TATATAACCGAGTGCACACACAAAAAAAAAGTGAAC [CACACA_site6806] | 10

Row | Sequence | gcPBM binding intensity (ln)
20 | AGGAAACAAGAAATGAAGAATCATGTAGAAGGCCCA [GTGCAC_negctrl_site187] | 9.33
21 | ATAAATAATAAAAAATGTACACATATAAATATAAAG [XGTACX_site727] | 9.47
22 | ATGATGAAAATAGAAATACACACTAAAAAATAAAAT [CACACA_site1136] | 9.8
23 | AAAACATGTTCAACATGTACACAACAGGATGAATAT [XGTACX_site506] | 9.57
24 | CTTACTTACTTACTCACACACATATACAAAGAAAAA [CACACA_site3347] | 9.64
25 | AAATATATGTTATATGTGCACTTTTTTTTTTTTTTT [GTGCAC_site9667] | 9.24
26 | TAAAATGAATATAGGTGTACTTAAAAAAAAGTAAAA [XGTACX_site4613] | 9.12
27 | TAAATTCTTTATAATCGTACATAAATAGAAAAATAA [XGTACX_site601] | 8.95
28 | TAAAAGAAATAATATACACACATATATAAAAATAAA [CACACA_site1329] | 9.6
29 | TATCGAGCCATTTTTACATGCAATTATACATAATTT [TGCATGCA_site987] | 9.26
30 | CATGTATACTATAATACACACTATAAAATATACACC [CACACA_site7121] | 9.58
31 | TTCAAATAATTTAAATGTACGTTGCTTTATTAAAAG [XGTACX_site3674] | 9
32 | GTTTTGTACATATTCTCACACATATAAAAATACCCA [CACACA_site4446] | 9.37
33 | TTCATAATAAAAAGGTGTACATATATATATATATAT [XGTACX_site2829] | 9.39
34 | AAGCATTTAATGTTTTATATAACATGTATTTTTTAT [CACACA_negctrl_site673] | 9.3
35 | TTTATATGTATACAAACATATAAATATAAATGTATT [TGCATGCA_negctrl_site346] | 9.12
36 | TGTTCTATGATTTGTACACACTTTTTTTTAAAATGC [CACACA_site5558] | 9.38
37 | TATATATACATATACACACACACACCGATATATATA [CACACA_site8706] | 10.2
38 | GAATGCATGTAAATATGTACATATATTTAAAAATTT [XGTACX_site6032] | 9.07

Row | Sequence | gcPBM binding intensity (ln)
39 | TGTTAAAAGGTTAAATTAAAATAACCTCCGGAAATT [GTGCAC_negctrl_site236] | 9.02
40 | ATAAATATATATTTACGTACATATTATATATATATA [XGTACX_site6172] | 9.27
41 | AAAAAAATTTCACATTGTACTTTAATAATATACTAC [XGTACX_site7264] | 9.07
42 | ACATATAAATTGTGTACACATATATATATATTTTTT [CACACA_site5946] | 9.4
43 | TTATATAATCCTTTCAAACACACAAAATATAATTAA [CACACA_site1830] | 9.28
44 | AGTGAAAAAAAATTTACACACATAAAATATAAACGA [CACACA_site3724] | 9.8
45 | AAATAAAATACATATAAACACACATATAAACCAACA [CACACA_site8789] | 10
46 | AAAAAAAATATAAGTGGTACTCACATAAAGACATAT [XGTACX_site3709] | 9.54
47 | TAATACTTTTAATCTACACACGCTGAGACATGCTTT [CACACA_site1484] | 9.22
48 | TTTTTAGTTCATTAAACACACAAAAAAAAAAATAAA [CACACA_site6035] | 9.22
49 | TTTTTTATTCTTTTTGCACACAGGAAATTTACAGAT [CACACA_site1090] | 9.46
50 | AAAATAAAAAGAAAAAATAAAAAGAAAAAATAAAAA [CACACA_negctrl_site120] | 9.35
51 | ATATTTATAACTTGTACACACAAATATGCATATATA [CACACA_site7583] | 9.56
52 | TTAAAATTTTTTTTTTTTTTTTTTTTTTTTTTTTTC [CACACA_negctrl_site957] | 8.62
53 | TTATTATTCCCTCATTTTGTTACCATTATTTCAATT [CACACA_negctrl_site1023] | 9.69
54 | TTGTTAAAATTATTAAGTTAAATATCGATTTGTAAA [XGTACX_negctrl_site429] | 8.81
55 | TATAAGTTTATATATACACACATATATATATATATA [CACACA_site3274] | 9.35
56 | TACAAAAAAAGATGATGTACAATGAAAAATAAGAAA [XGTACX_site5840] | 9.6
